Values joined by “and” are separate entries in the source; they are usually repeats but may differ in a detail not shown here. Equal values may be shown once. Inconclusive results, whose numbers are uncertain, are shown with a selection of clear calls. For some of these results: Potencies beside an inconclusive call are fits to weak or partial responses and may not hold up. Active and inactive are the calls of the source. Calls follow the shape of the dose curve; as a rule, active = well fitted curve in the direction sought with a large enough effect; inconclusive = small, poorly fitted or top-dose-only effect, or another doubt; inactive = no such curve, though single readings can be large; an effect the other way counts as inactive or inconclusive.
Experiments:
[1] = Primary qHTS for inhibitors of nuclear receptor binding SET domain protein 2 (NSD2) in an RCH-ACV wild type WT cells (2C) (AID 1645877); also: nearly all actives have a fitted effect of over 70% in size; also: potency is read from the fitted curve at half-maximal effect
[2] = biological target: Phospholipid hydroperoxide glutathione peroxidase GPX4 (Homo sapiens) (UniProt P36969); assay: Primary qHTS Assay for Inhibitors of Recombinant Selenoprotein Glutathione Peroxidase 4 (GPX4) (AID 1845192); also: nearly all actives have a fitted effect of over 65% in size; also: potency is read from the fitted curve at half-maximal effect
Procedure, shortened: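 NADPH consumption followed by fluorescence at 340/450 nm, t=0 and after 15 min at room temperature. Reaction started with cumene hydroperoxide (0.5 mM final) after 30 min compound–GPX4 preincubation; final 200 nM GPX4, 100 nM GR, 1 mM GSH, 0.5 mM NADPH.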

[3] = Primary fluorescence-based thiol-reactive (MSTI) qHTS assay for identification of artifact compounds. (AID 1845221); also: potency is read from the fitted curve at half-maximal effect;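 also: thiol-reactive compounds lower the probe fluorescence signal; nearly all actives have a fitted effect of over 65% in size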
Procedure, shortened: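 Curve-fitted percent inhibition (4-parameter Hill) derived from fluorescence, Ex 525/Em 598 nm, scaled with Acetyl-MSTI and MSTI; 1 h incubation at room temperature.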

[4] = biological target: Glutathione peroxidase 1 (Homo sapiens) (UniProt P07203); assay: Primary qHTS Assay for Inhibitors of Recombinant Selenoprotein Glutathione Peroxidase 1 (GPX1) (AID 1845191); also: potency is read from the fitted curve at half-maximal effect; nearly all actives have a fitted effect of over 65% in size
Procedure, shortened: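 NADPH consumption tracked by fluorescence at 340/450 nm between t=0 and t=15 min, room temperature. Final mix: 10 nM GPX1, 100 nM glutathione reductase, 1 mM GSH, 0.5 mM NADPH, 0.5 mM cumene hydroperoxide, 0.01% BSA; 30 min compound–enzyme preincubation.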

[5] = biological target: Rap guanine nucleotide exchange factor 3 (Homo sapiens) (UniProt O95398); assay: Confirmatory qHTS for antagonist of cAMP-regulated guanine nucleotide exchange factor 3 (EPAC1) (AID 1645880); also: nearly all actives have a fitted effect of over 55% in size; also: potency is read from the fitted curve at half-maximal effect
Procedure, shortened: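 Released BODIPY-GDP fluoresces less than Rap1-bound BODIPY-GDP; the signal is followed at 480/540 nm at 5-min intervals over 30 min, after 5 min at room temperature. Reactions contain 100 nM EPAC1, 250 nM RAP1B-BODIPY-GDP and 50 uM GDP; results are normalized to ATA and DMSO.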

[6] = biological target: Rap guanine nucleotide exchange factor 4 (Homo sapiens) (UniProt Q8WZA2); assay: Confirmatory qHTS for agonist of cAMP-regulated guanine nucleotide exchange factor 4 (EPAC2) (AID 1645884);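 also: nucleotide exchange releases bodipy-GDP from Rap1 and this lowers its fluorescence; potency is read from the fitted curve at half-maximal effect; nearly all actives have a fitted effect of over 65% in size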
[7] = NCATS anti-infectives library activity on HEK293 viability as a counter-qHTS vs the C. elegans viability qHTS (AID 1745854); also: % is scaled to controls: 0 for no effect and ±100 for the full control effect
Procedure, shortened: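 CellTiter-Glo luminescence, read on a CCD imager, scored viability of HEK293 cells after 24 hr compound exposure at 37C. Library tested in several concentrations, 1:5 steps, up to 41.7 uM; digitonin served as control.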

[8] = biological target: Luciferin 4-monooxygenase (Photinus pyralis) (UniProt P08659); assay: Primary firefly luciferase (FLuc) qHTS assay for identification of artifact compounds. (AID 1845220); also: potency is read from the fitted curve at half-maximal effect; nearly all actives have a fitted effect of over 60% in size
Procedure, shortened: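 FLuc 10 nM; luciferin 10 uM; ATP 10 uM; Tris-acetate pH 7.6, Mg-acetate 10 mM; 15 min RT preincubation; 5 min reaction; luminescence.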

[9] = HepG2 viability counterscreen (readout 2: ATP content) against the NCATS DSHEA and TCM libraries (AID 1794840); details: ATP content luminescence; at 27.3 µM (top of the series);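 also: HepG2 cells exposed to substances for about 24 h; 0% is about no effect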
Procedure, shortened: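 Readout 1: cellular protease activity, GF-AFC substrate (25 uM final, 30 min, fluorescence 380/510 nm). Readout 2: ATP content by CellTiter-Glo luminescence after 30 min at RT. Both follow ~24 h exposure of HepG2 cells (1,000/well) to substances.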
Tags tell the direction and shape of the fitted curve.

Chain of UniProt P36969 (P36969 whole entry, looked up): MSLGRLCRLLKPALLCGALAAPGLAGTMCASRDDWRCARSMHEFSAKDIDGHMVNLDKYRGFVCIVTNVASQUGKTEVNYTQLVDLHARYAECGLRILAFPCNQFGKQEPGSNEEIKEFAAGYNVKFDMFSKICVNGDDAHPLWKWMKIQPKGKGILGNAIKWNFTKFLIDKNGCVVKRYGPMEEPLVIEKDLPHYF
Chain of UniProt O95398 (O95398 whole entry, looked up): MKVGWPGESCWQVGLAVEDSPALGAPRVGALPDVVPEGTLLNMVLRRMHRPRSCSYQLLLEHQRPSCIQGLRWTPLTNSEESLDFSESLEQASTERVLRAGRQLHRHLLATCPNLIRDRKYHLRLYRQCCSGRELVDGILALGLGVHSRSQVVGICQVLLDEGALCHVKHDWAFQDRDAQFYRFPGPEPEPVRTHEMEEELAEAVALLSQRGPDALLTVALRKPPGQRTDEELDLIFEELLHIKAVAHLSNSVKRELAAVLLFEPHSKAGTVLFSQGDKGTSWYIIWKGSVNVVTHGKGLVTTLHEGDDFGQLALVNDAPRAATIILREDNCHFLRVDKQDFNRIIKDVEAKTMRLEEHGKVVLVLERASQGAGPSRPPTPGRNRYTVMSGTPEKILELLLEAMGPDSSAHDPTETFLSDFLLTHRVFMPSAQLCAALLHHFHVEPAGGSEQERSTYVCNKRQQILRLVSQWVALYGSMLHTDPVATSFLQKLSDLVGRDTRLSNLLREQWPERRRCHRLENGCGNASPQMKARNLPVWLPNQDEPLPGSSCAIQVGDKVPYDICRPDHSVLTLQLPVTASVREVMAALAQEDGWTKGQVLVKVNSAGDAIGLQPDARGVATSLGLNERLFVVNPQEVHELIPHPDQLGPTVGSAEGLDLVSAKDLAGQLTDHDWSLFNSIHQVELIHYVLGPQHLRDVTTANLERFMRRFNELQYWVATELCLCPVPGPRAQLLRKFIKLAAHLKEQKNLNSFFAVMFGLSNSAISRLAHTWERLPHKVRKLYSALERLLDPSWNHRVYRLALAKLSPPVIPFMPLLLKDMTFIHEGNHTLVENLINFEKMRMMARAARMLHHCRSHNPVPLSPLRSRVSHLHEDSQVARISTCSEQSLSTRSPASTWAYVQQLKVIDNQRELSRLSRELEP
Chain of UniProt Q8WZA2 (Q8WZA2 whole entry, looked up): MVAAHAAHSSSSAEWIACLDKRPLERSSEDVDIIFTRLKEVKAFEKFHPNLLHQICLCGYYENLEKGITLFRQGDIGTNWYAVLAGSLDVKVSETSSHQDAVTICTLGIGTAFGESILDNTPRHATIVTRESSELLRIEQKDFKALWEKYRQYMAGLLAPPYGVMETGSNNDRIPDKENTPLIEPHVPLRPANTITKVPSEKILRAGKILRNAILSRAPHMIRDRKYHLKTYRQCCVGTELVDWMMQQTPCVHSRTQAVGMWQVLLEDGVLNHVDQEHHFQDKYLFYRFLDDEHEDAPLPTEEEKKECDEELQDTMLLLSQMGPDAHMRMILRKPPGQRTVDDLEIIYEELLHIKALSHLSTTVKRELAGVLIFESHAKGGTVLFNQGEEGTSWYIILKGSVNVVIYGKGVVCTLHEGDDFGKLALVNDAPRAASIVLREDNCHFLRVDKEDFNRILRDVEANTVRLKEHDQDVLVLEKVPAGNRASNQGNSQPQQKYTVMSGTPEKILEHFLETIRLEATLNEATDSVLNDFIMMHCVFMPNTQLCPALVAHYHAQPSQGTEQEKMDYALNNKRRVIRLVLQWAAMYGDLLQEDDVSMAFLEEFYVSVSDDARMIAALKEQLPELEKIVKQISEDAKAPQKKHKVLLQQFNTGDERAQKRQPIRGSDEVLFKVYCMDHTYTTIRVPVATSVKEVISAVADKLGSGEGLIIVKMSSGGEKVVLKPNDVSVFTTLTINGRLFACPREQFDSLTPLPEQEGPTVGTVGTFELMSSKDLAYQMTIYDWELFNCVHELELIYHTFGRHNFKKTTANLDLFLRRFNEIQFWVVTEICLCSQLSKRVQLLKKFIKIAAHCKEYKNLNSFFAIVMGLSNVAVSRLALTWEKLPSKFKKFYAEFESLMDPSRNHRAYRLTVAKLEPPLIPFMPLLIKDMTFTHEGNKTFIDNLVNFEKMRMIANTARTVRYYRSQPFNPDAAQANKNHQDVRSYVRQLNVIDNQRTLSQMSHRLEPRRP
Chain of UniProt P07203 (P07203 whole entry, looked up): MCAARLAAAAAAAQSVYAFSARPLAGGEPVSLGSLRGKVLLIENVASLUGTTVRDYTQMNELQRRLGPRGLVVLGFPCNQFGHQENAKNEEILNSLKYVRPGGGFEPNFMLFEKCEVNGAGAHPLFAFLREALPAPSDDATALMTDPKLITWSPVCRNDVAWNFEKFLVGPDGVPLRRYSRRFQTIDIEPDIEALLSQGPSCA

**Q.** Which Potency [1] does the source give for `O=c1[nH]c2ccc(Cl)cc2c(N[C@@H]2CN3CCC2CC3)c1-c1nc2ccccc2[nH]1` here?
**A.** The Potency was active: 51.5 nM and active: 83.3 nM.

**Q.** And the Potency [2]?
**A.** The Potency was inconclusive: 14.3 µM [inhibitor, partial curve].

**Q.** For `C[C@]12CC[C@H](O)C[C@H]1CC[C@@H]1[C@@H]2[C@H](O)C(=O)[C@]2(C)[C@@H](c3ccc(=O)oc3)CC[C@]12O`, which Potency [1] is on record?
**A.** Its Potency is active: 0.0515 µM.

**Q.** What about the Potency [3] of the same compound?
**A.** The Potency was “inactive”.

**Q.** Which results are given for `CCOc1ccc(Oc2ccc(OCc3cc(F)ccc3F)cc2)c(N)c1`?
**A.** Potency [1]: inconclusive: 29 µM [inhibitor, single point]; Potency [3]: active: 8.44 µM

**Q.** Which Potency [1] does the source give for `C/C1=C/[C@@H](C)C/C=C/[C@H]2[C@@H]3O[C@]3(C)[C@@H](C)[C@H]3[C@H](Cc4c[nH]c5ccccc45)NC(=O)[C@]32C(=O)/C=C\C(=O)[C@@H]1O` here?
**A.** The Potency was active: 0.502 µM.

**Q.** And the Potency [3]?
**A.** The Potency was inconclusive: 1.84 µM [inhibitor, partial curve, poor fit].

**Q.** For `O=C(O)CNC(=O)c1c(O)c2ccccc2n(Cc2ccccc2)c1=O`, which Potency [1] is on record?
**A.** Its Potency is “inactive”.

**Q.** And the Potency [3]?
**A.** Its Potency is inconclusive: 1.5 µM [inhibitor, full curve, poor fit].

**Q.** What does the source list for `CNC(=O)N1N=C(c2ccc(N)cc2)c2cc3c(cc2CC1C)OCO3` (centres undefined)?
**A.** Potency [1]: active: 2.05 µM; Potency [3]: inconclusive: 11.9 µM [inhibitor, partial curve, poor fit]

**Q.** Which Potency [1] does the source give for `C1=C(c2cnc[nH]2)c2ccsc2CC1` here?
**A.** Its Potency is inconclusive: 2.9 µM [inhibitor, partial curve, poor fit].

**Q.** What about the Potency [4] of the same compound?
**A.** The Potency was active: 20.2 µM.

**Q.** What does the source list for `CC[C@H]1C2CC3[C@@H]4N(C)c5ccccc5[C@]45C[C@@H]([C@H]2[C@H]5O)N3[C@H]1O`?
**A.** Potency [1]: inactive; Potency [3]: inconclusive: 6.56 µM [inhibitor, partial curve]

**Q.** With `C[C@H]1O[C@@H](n2cnc3c(N)ncnc32)C[C@@H]1O` as the compound, how does the Potency [1] read?
**A.** The Potency was “inactive”.

**Q.** And the Potency [3]?
**A.** Its Potency is “inactive”.

**Q.** Which results are given for `CC(=O)OC12C(O)C(C)C3(O)C4C=C(C)C(=O)C4CC(CO)=CC3C1C2(C)C` (centres undefined)?
**A.** Potency [1]: inactive; Potency [3]: inactive

**Q.** With `C[C@H](N)[C@H](O)c1ccc(O)c(O)c1` as the compound, how does the Potency [1] read?
**A.** The Potency was “inactive”.

**Q.** And the Potency [5]?
**A.** The Potency was inconclusive: 15.6 µM [inhibitor, partial curve, poor fit].

**Q.** What about the Potency [6] of the same compound?
**A.** Its Potency is inconclusive: 6.22 µM [activator, partial curve, poor fit].

**Q.** And the Potency [2]?
**A.** The Potency was “inactive”.

**Q.** For `C[C@@H]1C[C@@H](O)[C@]2(O)O[C@@H]3C[C@@]4(C=O)C(CC[C@@H]5C4CC[C@]4(C)[C@@H](C6=CC(=O)OC6)CC[C@]54O)C[C@H]3O[C@@H]2O1` (some centres undefined), which Potency [1] is on record?
**A.** Its Potency is active: 0.0796 µM.

**Q.** What about the Potency [3] of the same compound?
**A.** The Potency was inconclusive: 11.6 µM [inhibitor, single point].

**Q.** With `CC(=O)N(C)c1cccc(-c2ccnc3c(C(=O)c4cccs4)cnn23)c1` as the compound, how does the Potency [1] read?
**A.** The Potency was inconclusive: 18.3 µM [inhibitor, single point].

**Q.** What about the Potency [2] of the same compound?
**A.** The Potency was inconclusive: 20.2 µM [inhibitor, partial curve, poor fit].

**Q.** What about the Potency [3] of the same compound?
**A.** Its Potency is “inactive”.

**Q.** For `Clc1ccc([C@]23CNC[C@H]2C3)cc1Cl`, which Potency [1] is on record?
**A.** Its Potency is “inactive”.

**Q.** What about the Potency [2] of the same compound?
**A.** The Potency was “inactive”.

**Q.** For `COc1ccccc1CN[C@H]1C2CCN(CC2)[C@H]1C(c1ccccc1)c1ccccc1`, which Potency [1] is on record?
**A.** Its Potency is inconclusive: 18.3 µM [inhibitor, single point].

**Q.** And the Potency [3]?
**A.** Its Potency is “inactive”.

**Q.** With `Cc1cc(C(=O)CN2CCCC2)c(C)n1-c1ccc(F)cc1` as the compound, how does the Potency [1] read?
**A.** The Potency was inconclusive: 8.17 µM [inhibitor, partial curve, poor fit].

**Q.** What about the Potency [7] of the same compound?
**A.** The Potency was “inactive”.

**Q.** What does the source list for `CCOC(=O)Nc1ccc(NCc2c(C)cc(C)cc2C)cc1N`?
**A.** Potency [1]: active: 9.16 µM; Potency [3]: inconclusive: 0.947 µM [inhibitor, full curve]

**Q.** What does the source list for `Cc1nc(-c2ccc(-c3ccc(C(=O)N4CCc5cc6c(cc54)C4(CCN(C)CC4)CO6)cc3)c(C)c2)no1`?
**A.** Potency [5]: inactive; Potency [6]: inconclusive: 8.89 µM [activator, partial curve, poor fit]

**Q.** With `CCCCCn1cc(C(=O)C2C(C)(C)C2(C)C)c2ccccc21` as the compound, how does the Potency [1] read?
**A.** The Potency was “inactive”.

**Q.** And the Potency [3]?
**A.** The Potency was “inactive”.

**Q.** For `CO[C@H]1[C@H](O)[C@H](O[C@H]2CC[C@]3(C)C4CC[C@]5(C)[C@H](C6=CC(=O)OC6)CC[C@]5(O)C4CC[C@@H]3C2)O[C@@H](C)[C@@H]1O` (some centres undefined), which Potency [1] is on record?
**A.** The Potency was active: 0.0282 µM.

**Q.** What about the Potency [8] of the same compound?
**A.** The Potency was active: 7.38 µM.

**Q.** For `CC1=CC2/C=C(\C)CCC(O)C(O)/C=C/C(=O)OC23C(=O)NC(CC(C)C)C3C1C` (centres undefined), which Potency [1] is on record?
**A.** Its Potency is inconclusive: 7.96 µM [inhibitor, single point].

**Q.** What about the Potency [3] of the same compound?
**A.** The Potency was “inactive”.

**Q.** For `CN(C)NC(=O)CCC(=O)O`, which Potency [1] is on record?
**A.** The Potency was “inactive”.

**Q.** And the Potency [2]?
**A.** The Potency was “inactive”.

**Q.** Which results are given for `COC1=CC(=O)O[C@@H](/C=C/c2ccccc2)C1`?
**A.** Potency [1]: inactive; activity change, negative = cytotoxic [9]: inactive: 0.98%

Reference: PubChem BioAssay (NCATS)
